Screen size: about 45,000 compounds; about 200 (0.44%) were called active. Not shown: some 7% with an inconclusive outcome. Calls follow the shape of the dose curve; as a rule, active = well fitted activation curve with a large enough effect; inconclusive = small, poorly fitted or top-dose-only effect; inactive = no such curve, though single readings can be large or run the other way. This is one part of the list.
Assay: qHTS of TDP-43 Inhibitors: NCGC Sytravon Library Screen; also: nearly all actives have a fitted effect of over 55% in size; as to growth rescue (activation): 0% is about no effect
Settings: yeast TDP-43 toxicity rescue, BacTiter-Glo growth, 24 h; series mostly up to 46.1 µM; growth rescue (activation): at the top concentration
How it was run: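 TDP-43-expressing yeast, pregrown in raffinose, seeded at OD600 0.02 in galactose medium with compound for 24 hr at 30 deg C. Growth read by BacTiter-Glo luminescence, so rescue of toxicity appears as activation.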
Potency is read from the fitted curve at half-maximal effect.

SMILES | growth rescue (activation) | Potency
COc1ccc(CNC(=O)COC(=O)Cc2ccsc2)cc1 | inactive: 17.2% | –
CCc1nc(SCC(=O)Nc2ccc(N(C)C)cc2)n[nH]1 | inactive: 32.2% | –
O=C(COc1ccc(S(=O)(=O)N2CCOCC2)cc1Cl)N1CCCC1 | inactive: 13.8% | –
CCc1ccccc1NC(=O)Nc1cccn(Cc2ccc(F)cc2)c1=O | inactive: 1.51% | –
c1ccc(-c2cn3nc(-c4ccccc4)sc3n2)cc1 | inactive: 34.2% | –
CCn1c(SCC(=O)N2CCN(C(=O)c3ccco3)CC2)nnc1C(C)C | inactive: 3.58% | –
COc1cc(OC)cc(C(=O)N[C@H](C(=O)OCC(=O)N2CCc3ccccc32)C(C)C)c1 | inactive: 2.53% | –
COc1ccc(CCN2C(=O)CS/C2=N\NC(=O)c2ccc(C(C)(C)C)cc2)cc1OC | inactive: -1.1% | –
CCCCCSc1nnc2c(n1)OC(c1cccn1C)N(C(C)=O)c1ccccc1-2 (stereo not given) | inactive: 17.4% | –
O=C(Nc1cc(S(=O)(=O)N2CCOCC2)ccc1N1CCOCC1)c1ccccc1Cl | inactive: 4.62% | –
CC(C)c1cc(=O)n2[nH]c(SCc3ccccc3)nc2n1 | inactive: 3.74% | –
CN(Cc1ccc2ccccc2c1)C(=O)c1ccc(C(F)(F)F)cc1 | inactive: 5.44% | –
Cc1cccn2cc(CNC(=O)CC3CCCC3)nc12 | inactive: -26.4% | –
O=C(c1cc2cc3ccc(Cl)cc3nc2o1)N1CCN(Cc2ccc3c(c2)OCO3)CC1 | inactive: -14% | –
O=C(CSc1nnc(-c2ccccc2)n1-c1ccc(Cl)cc1)NC1CCS(=O)(=O)C1 (stereo not given) | inactive: -5.59% | –
O=C(Nc1c(Cl)cccc1Cl)C1CCN(C(=O)c2cccs2)CC1 | inactive: -2.31% | –
Cc1sc(NC(=O)CCCC(=O)O)c(C(N)=O)c1-c1ccccc1 | inactive: 11.3% | –
COc1cc(OC)c(NC(=O)c2cncn2-c2ccc(F)cc2)cc1Cl | inactive: 2.67% | –
C=CCOc1cccc(/C=C2\C(=O)N(Cc3ccc(C)cc3)C(C)=C2C(=O)OC)c1 | inactive: -2.7% | –
COc1ccc(CCNC(=O)c2ccc(CNS(=O)(=O)c3cccc(Cl)c3)cc2)cc1OC | inactive: 11.5% | –
CCCn1nc(C(=O)OCC(=O)Nc2ccc(C)cc2)c2ccccc2c1=O | inactive: -2.97% | –
CC(C)[C@H](NC(=O)c1ccccc1)C(=O)OCC(=O)Nc1ccc(S(=O)(=O)N2CCOCC2)cc1 | inactive: 5.54% | –
C1=CCC(CN2CCNCC2)CC1 (stereo not given) | inactive: -10.3% | –
Oc1cccc(/C=N/Nc2ncnc3c2ncn3Cc2ccccc2)c1 | inactive: 7.68% | –
Cn1cccc1C(=O)OCC(=O)Nc1ccc2c(c1)OCCO2 | inactive: 10.3% | –
S=C(NCc1ccc(Cl)cc1)Nc1ccccc1 | – | active: 12.6 µM
COc1ccc(Cl)cc1NC(=O)CN(C)CC(=O)Nc1ccc(S(N)(=O)=O)cc1 | inactive: -1.21% | –

SMILES | growth rescue (activation) | Potency
CC1CCN(c2nc3c(=O)[nH]c(N)nc3n2[C@@H]2O[C@H](CO)[C@@H](O)[C@H]2O)CC1 | inactive: -14.6% | –
Cc1ccc(C(=O)NCCNC(=O)c2ccc(F)cc2)cn1 | inactive: 2.76% | –
CCOC(=O)c1cc2n(n1)C(C(F)(F)F)CC(C)N2 (stereo not given) | inactive: 0.536% | –
CCOC(=O)CSc1ccc(C(=O)Nc2ccc(OC)cc2)cn1 | inactive: 10.4% | –
COc1cc(/C=N/NC(=O)c2ccncc2)ccc1OCC(=O)Nc1ccccc1 | inactive: -17.2% | –
CCOC(=O)C1CCN(C(=O)Cc2ccc(OC)c(OC)c2)CC1 | inactive: 6.28% | –
CC(C)Sc1nc2c(cnn2-c2ccc(Cl)cc2)c(=O)[nH]1 | inactive: -3.44% | –
COc1ccc(-c2cnc(N)nc2-c2ccc(OCc3ccccc3)cc2O)cc1 | inactive: 33.2% | –
CC(C)NC(=O)CSc1c2c(nc3ccccc13)CCCC2 | inactive: -7.94% | –
CCS(=O)(=O)N1Cc2ccccc2CC1C(=O)Nc1ncc(C)s1 (stereo not given) | inactive: 2.33% | –
Cc1ccccc1-c1cnc(C(O)c2c(C)cccc2C)[nH]1 (stereo not given) | inactive: -12.8% | –
Cc1ccc(/C=N/Nc2nnc(Cc3ccccc3)c(=O)[nH]2)o1 | inactive: 6.95% | –
O=C(Nc1ccc2oc(-c3ccccc3F)nc2c1)c1ccco1 | inactive: 23.2% | –
CCN(CC(=O)Nc1ccccc1C(F)(F)F)C(=O)CCc1ccccc1 | inactive: 18.3% | –
O=C(Nc1cccc(Cl)c1)c1ccc2sc([C@H]3C[C@H](O)[C@@H](CO)O3)nc2c1 | inactive: -4.79% | –
COCCn1c(C(F)(F)F)ccc(NC(=O)c2ccccc2)c1=O | inactive: 7.89% | –
Cc1cc(C)cc(OCC(=O)N/N=C/c2ccncc2)c1 | inactive: -13.9% | –
CCOc1ccccc1-c1nnc(SCC(=O)NC2CC3CCC2C3)n1CC (stereo not given) | inactive: -10.7% | –
O=C(O)c1ccc(N2CC3CC(C2)c2cccc(=O)n2C3)c(NS(=O)(=O)c2cccc(C(F)(F)F)c2)c1 (stereo not given) | inactive: 3.82% | –
CCN(CC)CCn1c(NCc2ccc(C)o2)nc2ccccc21 | inactive: 8.74% | –
COCCNC(=O)C(Cc1c[nH]c2ccccc12)NC(=O)OCc1ccccc1 (stereo not given) | inactive: 2.35% | –
CNC(=S)N(Cc1cccs1)Cc1cc2ccc(OC)cc2[nH]c1=O | inactive: 2.67% | –
Cc1csc(CN(C)C(=O)CC2C(=O)NCCN2Cc2ccc(-c3ccccc3)cc2)n1 (stereo not given) | inactive: 13.3% | –
CC1CC(C)CN(C(=O)C(C)N2CCN(S(=O)(=O)c3ccccc3F)CC2)C1 (stereo not given) | inactive: 6.03% | –
O=C1/C(=C\c2ccco2)NC(=S)N1c1ccccc1 | inactive: -17.5% | –
O=C(NC1CCCc2ccccc21)c1cn2ccccc2n1 (stereo not given) | inactive: 13.7% | –
Cc1cccc(-c2noc(CN(C)C(=O)c3ccco3)n2)c1 | inactive: 10.9% | –

SMILES | growth rescue (activation) | Potency
CN(Cc1cccnc1)C(=O)Cc1ccc(NS(=O)(=O)c2cccc(C(F)(F)F)c2)cc1 | inactive: -0.142% | –
CC(=O)c1ccc(N2CCN(C(=O)C3CCN(S(=O)(=O)c4cccs4)CC3)CC2)cc1 | inactive: 8.26% | –
Cc1cccc(NC(=O)CN2C(=O)NC3(CCCCCCC3)C2=O)c1C | inactive: -27.9% | –
CCOc1ccc(S(=O)(=O)NCc2ccccn2)c(C)c1C | inactive: 3.2% | –
CCc1nc2ccc(C(=O)NCCOc3ccc(OC)cc3)cn2c1N(CCC(C)C)CCN(C)C | inactive: -19.3% | –
C=CCC1NCCc2c(Br)cccc21 (stereo not given) | inactive: 9.15% | –
CCCn1c(C)nc2c(c1=O)c1nc3ccccc3nc1n2-c1ccccc1 | inactive: -8.06% | –
CC(=O)OC[C@@H]1CN(Cc2ccccc2)C[C@H](n2cnc3c(NCC(C)C)ncnc32)O1 | inactive: -5.83% | –
CC1(C(=O)NCc2cccnc2)Cc2c(-c3cccc(C(F)(F)F)c3)ccnc2O1 (stereo not given) | inactive: 12.9% | –
CN(C)S(=O)(=O)c1cccc(C(=O)Nc2ccc(N3CCOCC3)cc2)c1 | inactive: -5.53% | –
COc1cccc(N(C(=O)c2ccco2)C(C(=O)NC2CCCC2)c2ccc(N3CCOCC3)cc2)c1 (stereo not given) | inactive: -2.53% | –
CCC(C)(C)NC(=O)C(c1ccccn1)N(C(=O)c1csnn1)c1ccc(C)cc1 (stereo not given) | inactive: 1.83% | –
Cc1ccc(C)c(N(CC(=O)NCc2ccco2)C(=O)CNS(=O)(=O)c2ccccc2)c1 | inactive: -3.68% | –
Cc1ccc(S(=O)(=O)N2CC(=O)Nc3ccccc32)c(C)c1NS(C)(=O)=O | inactive: 3.17% | –
CCC(=O)Nc1ccc(C(=O)NNC(=O)C(c2ccccc2)c2ccccc2)cc1 | inactive: 3.37% | –
O=C1C(=O)N(CCN2CCOCC2)C(c2cccnc2)/C1=C(/O)c1ccc(Cl)cc1 (stereo not given) | inactive: 12.6% | –
C=C(C)c1cccc(C(C)(C)NC(=O)N2CCN(c3ncccn3)CC2)c1 | inactive: 2.15% | –
CC(=O)Nc1ccc(NS(=O)(=O)c2ccc(Cl)s2)cc1 | inactive: 13.5% | –
O=C(COC(=O)/C=C/c1ccco1)NCc1ccco1 | inactive: -9.55% | –
N#Cc1ccccc1CSc1ncccc1C(=O)O | inactive: -0.0093% | –
CC1C/C(=C\c2ccccc2[N+](=O)[O-])c2nc3ccccc3c(C(=O)O)c2C1 (stereo not given) | inactive: -7.75% | –
CCCC(=O)N1CCN(c2ccc(NC(=O)c3ccc(N4CCCC4)c([N+](=O)[O-])c3)cc2Cl)CC1 | inactive: 26.3% | –
CC1=C(C(=O)N2CCCC(CCC(=O)NCc3ccccc3F)C2)OCCO1 (stereo not given) | inactive: 3.72% | –
COc1ccccc1OCC(=O)Nc1ccc(S(=O)(=O)Nc2onc(C)c2C)cc1 | inactive: 9.55% | –
CC1CCCCC1NC(=O)CSc1nc2ccccc2[nH]1 (stereo not given) | inactive: 4.75% | –
Cc1ccc(N2CC(C(=O)N3CCC(C(=O)Nc4cccc(Br)c4)CC3)CC2=O)cc1 (stereo not given) | inactive: 3.84% | –
CCOC(=O)c1nnn(-c2nc(OC)nc(N3CCCC3)n2)c1-c1ccccc1 | inactive: 24.5% | –

SMILES | growth rescue (activation) | Potency
CCSc1ncc(Cl)c(C(=O)N(Cc2ccccc2)Cc2ccco2)n1 | inactive: 15.1% | –
COc1ccc(CCNC/C=C/c2ccccc2)cc1 | inactive: 4.17% | –
Cn1c(O)c(C2=c3ccccc3=NC2=O)[nH]c1=S | inactive: -0.429% | –
O=C(c1ccc2c3c(cccc13)CC2)C1CCCN(Cc2ccccn2)C1 (stereo not given) | inactive: -7.88% | –
Cc1ccc(NC(=O)C2C3C=CC4(O3)C2C(=O)N(CCN2CCOCC2)C4C(=O)NC2CCCCC2)cc1C (stereo not given) | inactive: -1.88% | –
Cc1cc(NC(=O)COC(=O)c2ccc(C)c(C)c2)no1 | inactive: 14.1% | –
CC1(C)CC(=O)C2=C(C1)NC1=C(C(=O)c3ccccc31)C2c1ccc(O)cc1 (stereo not given) | inactive: 18.1% | –
N#Cc1c(NC(=O)C2CCCO2)sc2c1CCCCC2 (stereo not given) | inactive: 22.8% | –
Cc1ccc(/C=C/C(=O)O)cc1S(=O)(=O)NCc1ccco1 | inactive: 3.53% | –
O=C(COC(=O)c1cccc(Cl)c1)NC(=O)NCc1ccccc1 | inactive: 10.4% | –
Cc1onc(-c2ccccc2)c1C(=O)NC(=S)Nc1sc2c(c1C#N)CCC(C)C2 (stereo not given) | inactive: -0.927% | –
O=C(Nc1cccc(C(=O)N2CCOCC2)c1)c1ccccc1Br | inactive: 10.2% | –
COc1ccccc1NC(=O)N1CCN(C(=O)c2ccco2)CC1 | inactive: 11% | –
O=C(Cc1cc(=O)oc2cc(O)ccc12)N[C@@H](Cc1c[nH]c2ccccc12)C(=O)O | inactive: -11.1% | –
CCOC(=O)c1c(C)[nH]c(C(=O)CSc2nnc(Nc3ccccc3F)s2)c1C | inactive: -20.2% | –
CCOc1ccc(S(=O)(=O)n2ccc(C)n2)cc1 | inactive: 5.65% | –
CC(=O)c1cccc(NC(=O)CN(C)S(=O)(=O)c2ccccc2)c1 | inactive: 5% | –
COC(=O)[C@H](CCSC)NC(=O)Nc1ccc(OC)cc1 | inactive: 24.8% | –
CCOC(=O)C(=Cc1cn(C)c2ccc(S(=O)(=O)N(C)C)cc12)C(=O)OCC | inactive: -4.43% | –
CCOC(=O)C1=C(c2ccccc2)Nc2ncnn2C1c1ccc(O)cc1 (stereo not given) | inactive: 6.45% | –
COc1ccc(C(=O)OCC[N+]2(C)CCOCC2)cc1 | inactive: -2.36% | –
COc1ccc(/C=N/NC(=O)CCc2n[nH]c(=O)[nH]c2=O)cc1OC | inactive: -6.69% | –
Cc1cccc(NC(=O)c2cc(-c3c(C)cc(C)cc3O)n[nH]2)c1 | inactive: 7.33% | –
COc1ccc(C(=O)O)cc1S(=O)(=O)Nc1ccc2cn[nH]c2c1 | inactive: 12.7% | –
